Among all 150,000 compounds or so, about 540 (0.36%) showed an effect of 50% or more. This is one part of the list.

The subject of the assay is Plasmodium falciparum. Briefly: Primary screen in NF54 nanoGlo assay, in single point, at 2uM, 72h; a lower Z score goes with more inhibition. Type of assay: functional, Erythrocyte. To be noted: timepoint 72 hour.
What is called % Inhibition is the relative decrease from the control value, in per cent. Regarding `CNC(=O)C[C@H]1CCOC2(CCN(S(=O)(=O)c3cccc4nsnc34)CC2)C1`, the “% Inhibition” value was -17% and the Z score was determined as 1.98.

In the case of `C=CCNC(=O)CN1CC2OCCN(Cc3ccccc3)C2C1` (configuration not stated), the “% Inhibition” value is on record as 29% and the Z score is reported as -3.85.

Consider `Nc1cccc(C(=O)NCCN2CCCCC2=O)n1`, for which the “% Inhibition” value is reported as -18% and the Z score was found to be 1.72.

Regarding `CCN(C)C1(CNS(=O)(=O)c2cn[nH]c2)CCCCC1`, the “% Inhibition” value is reported as -6% and the Z score came out at 0.56.

For the molecule `Cc1cc(C)n(-c2cnc3c(-c4ccccn4)cnn3c2-c2ccccc2)n1`, the “% Inhibition” value was determined as 29% and the Z score is listed as -3.8.

With `CCc1cccc(N2C(=O)CN(S(=O)(=O)c3ccc(C)cc3)C[C@@]2(C)C(=O)NCCC(C)C)c1`, the “% Inhibition” value is given as -9% and the Z score turned out to be 1.07.

With `COc1ccc(S(=O)(=O)Nc2cnc(N(C)C)nc2)cc1Cl`, the “% Inhibition” value was 1% and the Z score is -0.23.

On to `O[C@H]1CN(Cc2cnn(-c3ccccc3)c2)CC[C@@H]1N1CCCCCC1`, for which the “% Inhibition” value is given as -11% and the Z score was found to be 1.49.

Turning to `COc1cccc(CN2CCC[C@@]3(CCN(C(=O)c4[nH]cnc4C)C3)C2=O)c1OC`, the “% Inhibition” value is on record as -16% and the Z score is 1.45.

In the case of `COc1ccccc1C1(Cn2nnnc2N(C)C[C@H]2CCOC2)CC1`, the “% Inhibition” value is given as -10% and the Z score worked out at 1.93.

With `COC(=O)C[C@]1(C(=O)OC)N[C@@H](c2ccccc2C)[C@H]2C(=O)N(C)C(=O)[C@H]21`, the “% Inhibition” value came out at 0% and the Z score is on record as -0.06.

For `CN(C(=O)COc1ccc(-c2ncccn2)cc1CN1CCN(c2ccccc2)CC1)C1CCCCC1`, the “% Inhibition” value was found to be 7% and the Z score was -0.96.

Regarding `CCN(CC)C(=O)CCC(=O)N1CC2(CCC2)[C@H]1c1ccccc1`, the “% Inhibition” value is -5% and the Z score was 0.78.

With `Cc1cccc(-c2ccc(C(=O)N[C@@H]3C(=O)NCC34CCOCC4)n2C)c1`, the “% Inhibition” value was -13% and the Z score was found to be 2.09.

For `CCN1CCN(c2nc3ccccc3nc2[C@@H](C#N)S(=O)(=O)c2ccccc2)CC1`, the “% Inhibition” value is reported as -5% and the Z score is listed as 0.45.

As for `CC1(C(=O)N2C[C@H](C(=O)O)[C@@H](c3ccccc3)C2)CCCOC1` (some centres not stated), the “% Inhibition” value is recorded as -8% and the Z score stood at 1.

Consider `O=C(O)c1ccc2c(c1)ncn2Cc1cccnc1`, for which the “% Inhibition” value was -10% and the Z score stood at 1.2.

For `CCn1c2c(c(=O)n3ncc(C(=O)NCC4CCN(Cc5cccc(Cl)c5)CC4)c13)CN(Cc1ccc(OC)cc1)CC2`, the “% Inhibition” value is listed as -16% and the Z score stood at 1.52.

Consider `CCN1C(=O)C[C@H](C(=O)Nc2cnc3ccccc3c2)[C@H]1c1nccn1CC`, for which the “% Inhibition” value stood at 23% and the Z score is given as 0.68.

In the case of `CC(C)(C)OC(=O)N1CCCC(CCNC(=O)CC2CCCO2)C1` (configuration not stated), the “% Inhibition” value stood at 8% and the Z score is -1.12.

On to `O=C(CCn1nnc2cc(-c3noc(-c4ccc(F)c(F)c4)n3)ccc21)N1CCCCC1`, for which the “% Inhibition” value is listed as -23% and the Z score came out at 4.53.

For the molecule `O=C(NC(C1CC1)C1CC1)c1cc(C2CC2)[nH]n1`, the “% Inhibition” value stood at 3% and the Z score was -0.63.

For the molecule `COC(CNC(=O)C1(C)CCCCN1)c1ccccc1` (configuration not stated), the “% Inhibition” value is on record as -9% and the Z score is 1.07.

On to `COc1c(Br)cccc1C(=O)NCCc1cn(C)cn1`, for which the “% Inhibition” value is -8% and the Z score was 1.49.

On to `C[C@](O)(CNC(=O)Nc1nncs1)c1ccco1`, for which the “% Inhibition” value is reported as -8% and the Z score was determined as 1.19.

In the case of `C[C@H](Oc1cccc(CO)c1)C(=O)N1CCC(c2ccccc2)CC1`, the “% Inhibition” value came out at 19% and the Z score is -2.42.

As for `COc1ccccc1N1CCN(Cc2ncccc2C(=O)O)CC1`, the “% Inhibition” value turned out to be 0% and the Z score is reported as 0.08.

Consider `O=C(NCCN1CCCC1)C(CN(Cc1ccc2c(c1)OCO2)CC1CCCO1)Oc1ccccc1F` (configuration not stated), for which the “% Inhibition” value is reported as 10% and the Z score was -0.92.

Take `Cc1cccc(CNC(=O)[C@]2(C)Cn3nc(-c4cccs4)cc3C(=O)N2c2cccc(C)c2C)c1`: the “% Inhibition” value was -4% and the Z score amounted to 0.82.

As to `CC(=O)N1CCCN(C(=O)c2cc(C)nc3cc(Br)ccc23)CC1`, the “% Inhibition” value was -13% and the Z score stood at 2.63.

On to `CC(NC(=O)C(C)N1CCN(C)CC1C)c1ccc2c(c1)OCCO2` (configuration not stated), for which the “% Inhibition” value is recorded as -11% and the Z score turned out to be 1.16.

Turning to `O=C(Nc1nccnc1C(=O)NC1CCN(S(=O)(=O)c2ccc(Cl)cc2)CC1)c1ccc(F)c(F)c1`, the “% Inhibition” value is on record as -1% and the Z score is 0.09.

For the molecule `O=C(C(=O)N1CCOCC1)c1c(-c2ccc(Cl)cc2)cc2ccccn12`, the “% Inhibition” value was -8% and the Z score amounted to 1.24.

On to `CCCC(NC(=O)N(C)CC1CCCC1O)c1ccccn1` (configuration not stated), for which the “% Inhibition” value is listed as -6% and the Z score amounted to 0.49.

For the molecule `O=C(N[C@H]1CCN(C(=O)C2CCC2)C1)c1ccccc1`, the “% Inhibition” value was -1% and the Z score is given as 0.22.

Turning to `Cc1cc(F)ccc1-c1ccc(C(=O)N2CC[C@@H](N)C2)cc1F`, the “% Inhibition” value amounted to 5% and the Z score was -0.72.

In the case of `Cc1nnc2n1CCC[C@@H]2NCc1cc(F)ccc1Br`, the “% Inhibition” value is -2% and the Z score is reported as 0.23.

As for `Cc1ccc2c(c1Br)CN(C(=O)NCC[C@H]1CCCOC1)C2`, the “% Inhibition” value is given as -4% and the Z score was found to be 0.77.

With `c1ccc(CCOCC2CCNCC2)cc1`, the “% Inhibition” value is given as 29% and the Z score was -3.33.

On to `CCC1(CNS(=O)(=O)Cc2ncsc2Br)CC1`, for which the “% Inhibition” value came to 4% and the Z score is on record as -0.61.

With `COc1ccccc1C(=O)Nc1ccc(Oc2nc3ccccc3n3c(C)nnc23)cc1`, the “% Inhibition” value is listed as -2% and the Z score is 0.19.

For the origin of these results see ChEMBL document CHEMBL4888484, “Replenishing the malaria drug discovery pipeline: Screening and hit evaluation of the MMV Hit Generation Library 1 (HGL1) against asexual blood stage Plasmodium falciparum ,using a nano luciferase reporter read-out” (2022).
